# Measured values as given in PubChem BioAssay (Tox21).
# Several values for one entry are separate records, joined by “and”; a condition that tells them apart may be missing. Equal entries are not always repeated. Inconclusive means that the source gave no clear call. Such entries were picked first, then a sample of the others. Potencies of inconclusive entries are doubtful fits and often do not repeat. Some compounds were tested as several samples or in several runs, with calls that do not always agree. Activity calls are given as the source filed them. The call rests on the fitted dose curve; in most records, active means well fitted cell-killing curve with a large enough effect in the repeat runs; inconclusive means weak or mixed curves, or effect the other way; inactive means no such curve, though single readings can be large or run the other way.
# Assay: qHTS assay to identify small molecule agonists of the RXR signaling pathway - cell viability counter screen (AID 1159529); further: nearly all actives have a fitted effect of over 50% in size
# Settings: RXR-alpha-bla HEK293T viability, CellTiter-Glo, 16 h; series mostly up to 76.8 µM
# From the text: National Center for Advancing Translational Sciences [NCATS]
# NIH Chemical Genomics Center [NCGC]
# U.S. Environmental Protection Agency [EPA]
# National Institutes of Environmental Health Sciences [NIEHS]
# National Toxicology Program [NTP]
# U.S. Food and Drug Administration [FDA]
# The Retinoid X receptor (RXR), a nuclear hormone receptor expressed in liver, spleen, placenta, epidermis, central nervous system. These receptors are able to form homo and heterodimers with other nuclear receptors and due to this heterodimerizing ability, RXR functions as master regulators producing diverse physiological effects. Three subtypes of RXR exist; alpha, beta and gamma. Retinoid X receptor alpha (RXR-alpha) has potential roles in metabolic signaling pathways, skin alopecia, dermal cysts, cardiac development, insulin sensitization etc. Therefore screening environmental chemicals on RXR-alpha signaling can be used for the studies focused on such therapeutic applications. For quantification of RXR-alpha ligands signaling, GeneBLAzer RXR alpha-UAS-bla HEK 293T (Life Technologies, Carlsbad, CA) cells containing a beta-lactamase reporter-gene under control of Retinoid X receptor-alpha response element were used to screen Tox21 10K library. The cytotoxicity of the Tox21 compound library against the RXR-alpha HEK 293T cell line was tested in parallel by measuring cell viability using CellTiter-Glo assay (Promega Corporation, Madison, WI) in the same wells.
# Tox21 Assay Protocol Summary:
# RXR-alpha HEK 293T cells were dispensed at 2,000 cells/6 uL of assay medium containing 2% charcoal-stripped FBS using a Multidrop Combi (ThermoFisher Scientific, Waltham, MA) dispenser. The assay was performed in black wall/clear-bottom 1536-well plates (Greiner Bio-One North America Inc. Monroe, NC). Tetraoctyl ammonium bromide was used as a positive control in the cytotoxicity screen. After the assay plates were incubated at 37 C and 5% CO2 for 5 hr, 23 nL of compounds dissolved in DMSO, positive control or DMSO only were transferred to the assay plate by a Pintool station (Kalypsys, San Diego, CA). The assay plates were incubated at 37 C and 5% CO2 for 16 hr. One uL of LiveBLAzer B/G FRET substrate (Life Technologies) was added using a Flying Reagent Dispenser (FRD) (Aurora Discovery, San Diego, CA) and the plates were incubated at room temperature for 2 hr. Fluorescence intensity (405 nm excitation, 460/530 nm emission) was measured using an Envision plate reader (PerkinElmer, Shelton, CT). For cytotoxicity, 4 uL/well of CellTiter-Glo reagent was added into the assay plates using an FRD. After 30 min incubation at room temperature, the luminescence intensity was measured using a ViewLux plate reader (PerkinElmer).
# Potency means the concentration at half of the fitted maximal effect; tags describe the fitted curve by direction and shape.
row,SMILES,Potency
1,CCCCCCCCn1sc(Cl)c(Cl)c1=O,inconclusive: 21.9 µM [cytotoxic]
2,COc1ccccc1OCCNCC(O)COc1cccc2[nH]c3ccccc3c12 (stereo not given),active: 19 µM
3,CCCCCCCOC(=O)c1ccc(O)cc1,"inconclusive: 38.9 µM [cytotoxic, partial curve]"
4,CCCN(CCC)C(=O)C(CCC(=O)OCCCN1CCN(CCOC(=O)Cc2c(C)n(C(=O)c3ccc(Cl)cc3)c3ccc(OC)cc23)CC1)NC(=O)c1ccccc1 (stereo not given),"inconclusive: 6.74 µM [cytotoxic, full curve]"
5,Cc1cc(O)c(Cl)c(C)c1Cl,"inconclusive: 54.9 µM [cytotoxic, partial curve, poor fit]"
6,NC(=O)N/N=C/c1ccc([N+](=O)[O-])o1,inconclusive: 54.9 µM [cytotoxic]
7,CC1=C(/C=C/C(C)=C/C=C/C(C)=C\C(=O)O)C(C)(C)CCC1,"inconclusive: 13.8 µM [cytotoxic, partial curve]"
8,O=C(O)c1cccnc1,"inconclusive: 0.0019 µM [rising, full curve, poor fit]"
9,Oc1ccc(Cl)cc1Cc1cc(Cl)ccc1O,"active: 49.9 µM and inconclusive: 24.5 µM [cytotoxic] and inconclusive: 26.8 µM [cytotoxic, single point]"
10,CC(=O)OC/C=C(C)/C=C/C=C(C)/C=C/C1=C(C)CCCC1(C)C,"inconclusive: 21.9 µM [cytotoxic, partial curve, poor fit]"
11,CC(C)(C)c1ccc(C(=O)CCCN2CCC(OC(c3ccccc3)c3ccccc3)CC2)cc1,active: 15.1 µM
12,CN(C)C(=S)SC(=S)N(C)C,active: 5.02 µM and active: 3.89 µM and active: 1.9 µM
13,CCn1c2ccccc2c2cc(N)ccc21,"inconclusive: 4.85 µM [cytotoxic, full curve] and inconclusive: 21.9 µM [cytotoxic, partial curve] and inconclusive: 13.8 µM [cytotoxic, partial curve, poor fit]"
14,OC1(c2ccc(Cl)c(C(F)(F)F)c2)CCN(CCCC(c2ccc(F)cc2)c2ccc(F)cc2)CC1,active: 6.74 µM
15,COc1cc([C@@H]2c3cc4c(cc3[C@@H](O[C@@H]3O[C@@H]5CO[C@@H](C)O[C@H]5[C@H](O)[C@H]3O)[C@H]3COC(=O)[C@H]23)OCO4)cc(OC)c1O,"inconclusive: 21.6 µM [cytotoxic, partial curve]"
16,C=CC(=O)OCC(CO)(COCC(COC(=O)C=C)(COC(=O)C=C)COC(=O)C=C)COC(=O)C=C,active: 8.6 µM
17,C=C(c1ccc(C(=O)O)cc1)c1cc2c(cc1C)C(C)(C)CCC2(C)C,active: 49 µM and active: 23.9 µM
18,CCc1cc(Cc2cc(CC)cc(C(C)(C)C)c2O)c(O)c(C(C)(C)C)c1,active: 13.8 µM
19,Cc1cc(Cc2cc(C)cc(C(C)(C)C)c2O)c(O)c(C(C)(C)C)c1,active: 12.4 µM and active: 21.9 µM
20,CCCC(c1cc(C(C)(C)C)c(O)cc1C)c1cc(C(C)(C)C)c(O)cc1C,active: 11.1 µM

row,SMILES,Potency
1,CCCCCCCCOC(=O)c1cc(O)c(O)c(O)c1,active: 43.6 µM
2,CN(C)C(=O)C1(N2CCCCC2)CCN(CC[C@@]2(c3ccc(Cl)c(Cl)c3)CN(C(=O)c3ccccc3)CCO2)CC1,active: 16.2 µM
3,CN1CCN(CCCN2c3ccccc3Sc3ccc(C(F)(F)F)cc32)CC1,active: 21.3 µM
4,c1ccc(Sc2ccccc2)cc1,"inconclusive: 43.6 µM [cytotoxic, single point]"
5,CCC(C)(C)c1ccc(CC(C)CN2C[C@@H](C)O[C@@H](C)C2)cc1 (stereo not given in full),active: 12 µM
6,O=C(c1ccc(O)cc1O)c1ccc(O)cc1O,"inconclusive: 49 µM [rising, partial curve]"
7,O=C(Nc1ccccc1)c1cc(Cl)ccc1O,"inconclusive: 3.89 µM [cytotoxic, partial curve]"
8,CC(C)(c1ccc(O)cc1)c1ccc(O)cc1,"inconclusive: 62.8 µM [rising, partial curve, poor fit]"
9,CCOC(=O)N1CCC(=C2c3ccc(Cl)cc3CCc3cccnc32)CC1,active: 54.9 µM
10,CCCCCCC(C)OC(=O)COc1nc(F)c(Cl)c(N)c1Cl (stereo not given),active: 34.7 µM
11,CCCCCCCCCCCCCCNCCO,"inconclusive: 3.01 µM [cytotoxic, full curve]"
12,Oc1ccc(C2(c3ccc(O)cc3)CC3CC2C2CCCC32)cc1 (stereo not given),active: 16.7 µM
13,CCCCCCCCCCOCC(O)CN (stereo not given),"inconclusive: 26.8 µM [cytotoxic, single point]"
14,O=C(CCCCCCCCc1cccnc1)N1CCC(C=C(c2ccccc2)c2ccccc2)CC1,inconclusive: 21.9 µM [cytotoxic]
15,CN(C)CCOc1ccc(/C(=C(/CCCl)c2ccccc2)c2ccccc2)cc1,active: 18.3 µM
16,O=C1c2c(O)ccc([N+](=O)[O-])c2C(=O)c2c([N+](=O)[O-])ccc(O)c21,active: 17.2 µM
17,Clc1ccc(C(c2ccccc2Cl)C(Cl)Cl)cc1 (stereo not given),active: 34.7 µM and active: 23.9 µM
18,CCCCCCCC/C=C/CCCCCCCC1=NCCN1CCO,active: 49 µM
19,Clc1ccc(C(Cn2ccnc2)OCc2ccsc2Cl)c(Cl)c1 (stereo not given),inconclusive: 26.8 µM [cytotoxic]
20,CCCCCCCCCCCCCC[P+](CCCC)(CCCC)CCCC (tested in a mixture with another compound),"inconclusive: 13.9 µM [cytotoxic, full curve, poor fit]"
